# Lines with a small IC50 respond at low doses; a limit (>, <) means that the fit lies beyond the doses tested. AUC is the area under the same curve over the 256-fold range up to the top dose, as a fraction; it is 1 without any effect and falls as sensitivity rises. Any top dose called inferred was calculated from the reported fits. For part of these data: Where an entry number is given, a second screen of the drug exists; the two often differ.
# How the values were obtained:
# AKT inhibitor VIII = compound: O=c1[nH]c2ccccc2n1C1CCN(Cc2ccc(-c3[nH]c4cc5ncnc5cc4nc3-c3ccccc3)cc2)CC1 [AKT inhibitor VIII]; experiment: Viability of human cancer cell lines after 72 h of drug (GDSC screen); details: top dose inferred
# Procedure: (§1)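 Human cancer cell lines in 384-well plates, medium with 10% serum, drug for 72 h over a 256-fold dose range (nine 2-fold or five 4-fold steps up to the top dose). Adherent lines were fixed and stained with the nucleic acid dye Syto60, suspension lines read with resazurin; signal relative to control wells, capped at 0 and 100%. One two-parameter sigmoid per drug and line, fitted in a mixed model over all curves with the slope shared within a line.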
# AICAR = compound: NC(=O)c1ncn([C@@H]2O[C@H](CO)[C@@H](O)[C@H]2O)c1N [AICAR]; experiment: as above; details: top dose 2000 µM; top dose inferred
# Procedure: as §1
# [1] = top dose 2.56 µM, screen: GDSC drug entry 171
# [2] = top dose 10.24 µM, screen: GDSC drug entry 228
Cell Line,AUC (AKT inhibitor VIII; [1]),IC50 (AKT inhibitor VIII; [1]),AUC (AKT inhibitor VIII; [2]),IC50 (AKT inhibitor VIII; [2]),AUC (AICAR),IC50 (AICAR)
"JEG-3 (urogenital system, adherent)",0.986,> 2.56 µM,0.991,> 10.2 µM,0.851,1310 µM
"JHH-1 (liver, adherent)",0.77,1.06 µM,0.801,5.52 µM,0.972,> 2000 µM
"JHH-2 (liver, adherent)",0.971,> 2.56 µM,0.977,> 10.2 µM,0.904,> 2000 µM
"JHH-4 (liver, adherent)",0.796,1.19 µM,,,0.925,> 2000 µM
"JHH-6 (liver, adherent)",0.911,> 2.56 µM,0.987,> 10.2 µM,0.665,362 µM
"JHH-7 (liver, adherent)",0.957,> 2.56 µM,0.972,> 10.2 µM,0.978,> 2000 µM
"JHOS-2 (ovary, adherent)",,,0.91,> 10.2 µM,0.822,1440 µM
"JHOS-3 (ovary, adherent)",,,0.897,> 10.2 µM,0.897,> 2000 µM
"JHU-011 (head and neck, adherent)",0.873,2.38 µM,0.88,> 10.2 µM,0.631,285 µM
"JHU-022 (head and neck, adherent)",0.982,> 2.56 µM,0.925,> 10.2 µM,0.758,868 µM
"JHU-029 (head and neck, adherent)",0.804,1.64 µM,,,0.734,689 µM
"JIMT-1 (breast, adherent)",0.944,> 2.56 µM,0.932,> 10.2 µM,0.761,765 µM
"JJN-3 (haematopoietic neoplasm, suspension)",0.992,> 2.56 µM,0.831,4.93 µM,0.788,711 µM
"JM1 (B-cell lymphoma, suspension)",0.949,> 2.56 µM,0.901,9.98 µM,0.771,661 µM
"JSC-1 (B-cell lymphoma, suspension)",0.944,> 2.56 µM,0.723,2.73 µM,0.837,1320 µM
"JVM-2 (lymphoid neoplasm, suspension)",0.978,> 2.56 µM,0.873,> 10.2 µM,0.866,> 2000 µM
"JVM-3 (lymphoid neoplasm, suspension)",0.987,> 2.56 µM,0.97,> 10.2 µM,0.775,803 µM
"JiyoyeP-2003 (Burkitt lymphoma, suspension)",0.974,> 2.56 µM,0.977,> 10.2 µM,0.858,1330 µM
"K2 (melanoma, adherent)",0.971,> 2.56 µM,0.931,> 10.2 µM,0.982,> 2000 µM
"K5 (thyroid, adherent)",0.982,> 2.56 µM,0.909,> 10.2 µM,0.86,1560 µM

Cell Line,AUC (AKT inhibitor VIII; [1]),IC50 (AKT inhibitor VIII; [1]),AUC (AKT inhibitor VIII; [2]),IC50 (AKT inhibitor VIII; [2]),AUC (AICAR),IC50 (AICAR)
"KARPAS-45 (lymphoblastic leukaemia, suspension)",0.974,> 2.56 µM,0.404,0.367 µM,0.96,> 2000 µM
"KARPAS-231 (B-cell leukaemia, suspension)",0.87,1.51 µM,,,0.783,647 µM
"KARPAS-299 (anaplastic large cell lymphoma, suspension)",0.992,> 2.56 µM,0.975,> 10.2 µM,0.804,809 µM
"KARPAS-422 (B-cell lymphoma, suspension)",0.952,> 2.56 µM,0.839,6.82 µM,0.774,775 µM
"KARPAS-620 (haematopoietic neoplasm, suspension)",0.96,> 2.56 µM,0.581,1.03 µM,0.852,1220 µM
"KASUMI-1 (acute myeloid leukaemia, suspension)",0.8,1.24 µM,0.32,0.201 µM,0.672,378 µM
"KE-37 (lymphoblastic leukaemia, suspension)",0.876,1.56 µM,0.239,0.143 µM,0.779,624 µM
"KELLY (neuroblastoma, adherent)",0.976,> 2.56 µM,0.963,> 10.2 µM,0.901,> 2000 µM
"KGN (ovary, adherent)",0.956,> 2.56 µM,0.828,8.26 µM,0.638,327 µM
"KLE (endometrium, adherent)",0.8,2.17 µM,0.797,8.38 µM,0.978,> 2000 µM
"KM12 (large intestine, adherent)",0.975,> 2.56 µM,0.898,> 10.2 µM,0.912,> 2000 µM
"KM-H2 (Hodgkin lymphoma, suspension)",0.973,> 2.56 µM,0.873,7.37 µM,0.819,924 µM
"KMH-2 (thyroid, adherent)",0.968,> 2.56 µM,0.942,> 10.2 µM,0.883,1740 µM
"KMOE-2 (acute myeloid leukaemia, suspension)",0.932,> 2.56 µM,0.606,1.21 µM,0.614,249 µM
"KMRC-1 (kidney, adherent)",0.925,> 2.56 µM,0.981,> 10.2 µM,0.973,> 2000 µM
"KMRC-20 (kidney, adherent)",0.971,> 2.56 µM,0.988,> 10.2 µM,0.932,> 2000 µM
"KMS-11 (myeloma, suspension)",,,0.857,6.49 µM,0.823,958 µM
"KMS-12-BM (myeloma, suspension)",0.968,> 2.56 µM,0.735,2.58 µM,0.669,336 µM
"KNS-42 (glioma, adherent)",0.938,> 2.56 µM,0.93,> 10.2 µM,0.896,> 2000 µM
"KON (head and neck, adherent)",0.886,> 2.56 µM,0.98,> 10.2 µM,0.877,1940 µM
